The labels stand for the following.
B1: CCGGAGG (DNA:RNA)
RNA: GGGAGACCGGAAUUCAGAUUGUCCCCGGAGGUUAAAUCCCGUCGUAGCCACCA
DNA 1: CAATCTGAATTCCGGTCTCCC
DNA 2: TGGTGGCTACGACGGGATT
B2: AAAAAUC (DNA:RNA)
RNA: B1 RNA with C25A, C26A, G27A, G28A, G30U, G31C
DNA 1: CAATCTGAATTCCGGTCTCCC
DNA 2: TGGTGGCTACGACGGGATT
B3: GUGUUAU (DNA:RNA)
RNA: B1 RNA with C25G, C26U, G28U, A29U, G30A, G31U
DNA 1: CAATCTGAATTCCGGTCTCCC
DNA 2: TGGTGGCTACGACGGGATT
B4: AGUCAAG (DNA:RNA)
RNA: B1 RNA with C25A, C26G, G27U, G28C, G30A
DNA 1: CAATCTGAATTCCGGTCTCCC
DNA 2: TGGTGGCTACGACGGGATT
B5: AUCACUC (DNA:RNA)
RNA: GGGAGACCGGAAUUCAGAUUGUCCAUCACUCUUAAAUCCCGUCGUAGCCACCA
DNA 1: CAATCTGAATTCCGGTCTCCC
DNA 2: TGGTGGCTACGACGGGATT
B6: GGCCAGU (DNA:RNA)
RNA: B1 RNA with C25G, C26G, G27C, G28C, G31U
DNA 1: CAATCTGAATTCCGGTCTCCC
DNA 2: TGGTGGCTACGACGGGATT
B7: GGACCAC (DNA:RNA)
RNA: B5 RNA with A25G, U26G, C27A, A28C, U30A
DNA 1: CAATCTGAATTCCGGTCTCCC
DNA 2: TGGTGGCTACGACGGGATT
B8: UACCCCG (DNA:RNA)
RNA: B5 RNA with A25U, U26A, A28C, U30C, C31G
DNA 1: CAATCTGAATTCCGGTCTCCC
DNA 2: TGGTGGCTACGACGGGATT
B9: UGGGACA (DNA:RNA)
RNA: B1 RNA with C25U, C26G, G30C, G31A
DNA 1: CAATCTGAATTCCGGTCTCCC
DNA 2: TGGTGGCTACGACGGGATT
B10: GGUGCGA (DNA:RNA)
RNA: B1 RNA with C25G, C26G, G27U, A29C, G31A
DNA 1: CAATCTGAATTCCGGTCTCCC
DNA 2: TGGTGGCTACGACGGGATT
B11: GGUCCCA (DNA:RNA)
RNA: B5 RNA with A25G, U26G, C27U, A28C, U30C, C31A
DNA 1: CAATCTGAATTCCGGTCTCCC
DNA 2: TGGTGGCTACGACGGGATT
B12: ACCUGAU (DNA:RNA)
RNA: B5 RNA with U26C, A28U, C29G, U30A, C31U
DNA 1: CAATCTGAATTCCGGTCTCCC
DNA 2: TGGTGGCTACGACGGGATT
B13: ACCCUAA (DNA:RNA)
RNA: B5 RNA with U26C, A28C, C29U, U30A, C31A
DNA 1: CAATCTGAATTCCGGTCTCCC
DNA 2: TGGTGGCTACGACGGGATT
B14: CCGAUGA (DNA:RNA)
RNA: B1 RNA with G28A, A29U, G31A
DNA 1: CAATCTGAATTCCGGTCTCCC
DNA 2: TGGTGGCTACGACGGGATT
B15: GCACUUA (DNA:RNA)
RNA: B5 RNA with A25G, U26C, C27A, A28C, C29U, C31A
DNA 1: CAATCTGAATTCCGGTCTCCC
DNA 2: TGGTGGCTACGACGGGATT
B16: ACAAGCG (DNA:RNA)
RNA: B5 RNA with U26C, C27A, C29G, U30C, C31G
DNA 1: CAATCTGAATTCCGGTCTCCC
DNA 2: TGGTGGCTACGACGGGATT
B17: CGUAGGG (DNA:RNA)
RNA: B1 RNA with C26G, G27U, G28A, A29G
DNA 1: CAATCTGAATTCCGGTCTCCC
DNA 2: TGGTGGCTACGACGGGATT
B18: UACAAAG (DNA:RNA)
RNA: B5 RNA with A25U, U26A, C29A, U30A, C31G
DNA 1: CAATCTGAATTCCGGTCTCCC
DNA 2: TGGTGGCTACGACGGGATT
B19: AUGAAGU (DNA:RNA)
RNA: B5 RNA with C27G, C29A, U30G, C31U
DNA 1: CAATCTGAATTCCGGTCTCCC
DNA 2: TGGTGGCTACGACGGGATT
B20: CUUGAGU (DNA:RNA)
RNA: B1 RNA with C26U, G27U, G31U
DNA 1: CAATCTGAATTCCGGTCTCCC
DNA 2: TGGTGGCTACGACGGGATT
B21: GCUUGCU (DNA:RNA)
RNA: B1 RNA with C25G, G27U, G28U, A29G, G30C, G31U
DNA 1: CAATCTGAATTCCGGTCTCCC
DNA 2: TGGTGGCTACGACGGGATT
B22: GUUAUCA (DNA:RNA)
RNA: B5 RNA with A25G, C27U, C29U, U30C, C31A
DNA 1: CAATCTGAATTCCGGTCTCCC
DNA 2: TGGTGGCTACGACGGGATT
B23: AGAUUAA (DNA:RNA)
RNA: B5 RNA with U26G, C27A, A28U, C29U, U30A, C31A
DNA 1: CAATCTGAATTCCGGTCTCCC
DNA 2: TGGTGGCTACGACGGGATT
B24: CGAGGUC (DNA:RNA)
RNA: B5 RNA with A25C, U26G, C27A, A28G, C29G
DNA 1: CAATCTGAATTCCGGTCTCCC
DNA 2: TGGTGGCTACGACGGGATT
B25: CACUUCU (DNA:RNA)
RNA: B5 RNA with A25C, U26A, A28U, C29U, U30C, C31U
DNA 1: CAATCTGAATTCCGGTCTCCC
DNA 2: TGGTGGCTACGACGGGATT
B26: CUCGCUC (DNA:RNA)
RNA: B5 RNA with A25C, A28G
DNA 1: CAATCTGAATTCCGGTCTCCC
DNA 2: TGGTGGCTACGACGGGATT
B27: GCACCAC (DNA:RNA)
RNA: B5 RNA with A25G, U26C, C27A, A28C, U30A
DNA 1: CAATCTGAATTCCGGTCTCCC
DNA 2: TGGTGGCTACGACGGGATT
B28: GUUUCCU (DNA:RNA)
RNA: B5 RNA with A25G, C27U, A28U, U30C, C31U
DNA 1: CAATCTGAATTCCGGTCTCCC
DNA 2: TGGTGGCTACGACGGGATT
B29: CUCCCUU (DNA:RNA)
RNA: B5 RNA with A25C, A28C, C31U
DNA 1: CAATCTGAATTCCGGTCTCCC
DNA 2: TGGTGGCTACGACGGGATT
B30: GUUCGGU (DNA:RNA)
RNA: B5 RNA with A25G, C27U, A28C, C29G, U30G, C31U
DNA 1: CAATCTGAATTCCGGTCTCCC
DNA 2: TGGTGGCTACGACGGGATT
B31: AGUAGUU (DNA:RNA)
RNA: B5 RNA with U26G, C27U, C29G, C31U
DNA 1: CAATCTGAATTCCGGTCTCCC
DNA 2: TGGTGGCTACGACGGGATT

The results in this text go back to paper PMC9911399, “Two distinct binding modes provide the RNA-binding protein RbFox with extraordinary sequence specificity”.

Changes are numbered by the printed parent chain; changes in the protein carry UniProt numbers. The list shows a part of the results.

This assay deals with T1, RBFOX1 RRM RbFoxmut (Fox-RRM*) (Homo sapiens, UniProt Q9NWB1 109-208, R118D;E147R;N151S;E152T).
T1 sequence: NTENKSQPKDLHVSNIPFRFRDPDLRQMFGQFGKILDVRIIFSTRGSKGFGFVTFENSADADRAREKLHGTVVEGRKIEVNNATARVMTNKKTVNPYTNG
As to the kind of experiment: EMSA; HiTS-Eq, 1 nM pool, 10 min; buffer printed only for the single-RNA assays: 10 mM Tris pH 7.5, 150 mM NaCl, 3.4 mM EDTA, 0.001% NP-40, 30 C. The settings on record: tags: His6 N-terminal (pET28a); label: 5' 32P. Put shortly: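 Purified wild-type or mutant RbFox RRM at increasing concentrations was equilibrated with 1 nM of 5′-radiolabelled RNA carrying 7 randomized nucleotides for 10 min in 50 µL. Unbound RNA was separated by 8% native PAGE and sequenced. Relative association constants came from read-count changes of each RNA species compared with the control reaction, normalised to the cognate motif.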
For B1, the binding signal is 0.107 KA relative to UGCAUGU.

Take B2: the binding signal was 0.0405 KA relative to UGCAUGU.

Take B3: the binding signal was 0.127 KA relative to UGCAUGU.

Consider B4, for which the binding signal is 0.0887 KA relative to UGCAUGU.

On to B5, for which the binding signal is 0.0365 KA relative to UGCAUGU.

For the molecule B6, the binding signal is 0.0703 KA relative to UGCAUGU.

For B7, the binding signal is 0.0575 KA relative to UGCAUGU.

For the molecule B8, the binding signal was 0.103 KA relative to UGCAUGU.

For B9, the binding signal was 0.0616 KA relative to UGCAUGU.

B10: the binding signal is 0.131 KA relative to UGCAUGU.

As for B11, the binding signal is 0.0504 KA relative to UGCAUGU.

B12: the binding signal is 0.0597 KA relative to UGCAUGU.

Turning to B13, the binding signal is 0.0841 KA relative to UGCAUGU.

As for B14, the binding signal was 0.069 KA relative to UGCAUGU.

Take B15: the binding signal is 0.101 KA relative to UGCAUGU.

As for B16, the binding signal was 0.0957 KA relative to UGCAUGU.

As for B17, the binding signal is 0.0658 KA relative to UGCAUGU.

For the molecule B18, the binding signal is 0.0551 KA relative to UGCAUGU.

Regarding B19, the binding signal was 0.108 KA relative to UGCAUGU.

B20: the binding signal was 0.13 KA relative to UGCAUGU.

Turning to B21, the binding signal is 0.166 KA relative to UGCAUGU.

In the case of B22, the binding signal was 0.18 KA relative to UGCAUGU.

Consider B23, for which the binding signal was 0.104 KA relative to UGCAUGU.

For the molecule B24, the binding signal is 0.165 KA relative to UGCAUGU.

As to B25, the binding signal was 0.0926 KA relative to UGCAUGU.

On to B26, for which the binding signal is 0.0607 KA relative to UGCAUGU.

In the case of B27, the binding signal is 0.0681 KA relative to UGCAUGU.

Take B28: the binding signal is 0.0859 KA relative to UGCAUGU.

Turning to B29, the binding signal was 0.0481 KA relative to UGCAUGU.

Regarding B30, the binding signal is 0.122 KA relative to UGCAUGU.

Turning to B31, the binding signal was 0.101 KA relative to UGCAUGU.
